In PubChem BioAssay (NCATS):
The inconclusive results got no clear call from the source; some entries with a clear call stand among them for comparison. Where the call is inconclusive, the potency comes from a doubtful curve fit. Activity calls are given as the source filed them. Calls come from the whole dose curve; as a rule, active = well fitted inhibition curve with a large enough effect; inconclusive = small, poorly fitted or top-dose-only effect; inactive = flat fitted curve, though single readings scatter.

The molecules below were run against Ubiquitin carboxyl-terminal hydrolase 1 (Homo sapiens) (UniProt O94782) (assay: Inhibitors of USP1/UAF1: Pilot qHTS (AID 504865;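 note: rhodamine fluorescence freed from ubiquitin-rhodamine substrate followed over time; nearly all actives have a fitted effect of over 35% in size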)). Settings: purified USP1/UAF1, Ub-rhodamine cleavage fluorescence; series mostly up to 54.9 µM.
Sequence of UniProt O94782 (O94782 whole entry, looked up): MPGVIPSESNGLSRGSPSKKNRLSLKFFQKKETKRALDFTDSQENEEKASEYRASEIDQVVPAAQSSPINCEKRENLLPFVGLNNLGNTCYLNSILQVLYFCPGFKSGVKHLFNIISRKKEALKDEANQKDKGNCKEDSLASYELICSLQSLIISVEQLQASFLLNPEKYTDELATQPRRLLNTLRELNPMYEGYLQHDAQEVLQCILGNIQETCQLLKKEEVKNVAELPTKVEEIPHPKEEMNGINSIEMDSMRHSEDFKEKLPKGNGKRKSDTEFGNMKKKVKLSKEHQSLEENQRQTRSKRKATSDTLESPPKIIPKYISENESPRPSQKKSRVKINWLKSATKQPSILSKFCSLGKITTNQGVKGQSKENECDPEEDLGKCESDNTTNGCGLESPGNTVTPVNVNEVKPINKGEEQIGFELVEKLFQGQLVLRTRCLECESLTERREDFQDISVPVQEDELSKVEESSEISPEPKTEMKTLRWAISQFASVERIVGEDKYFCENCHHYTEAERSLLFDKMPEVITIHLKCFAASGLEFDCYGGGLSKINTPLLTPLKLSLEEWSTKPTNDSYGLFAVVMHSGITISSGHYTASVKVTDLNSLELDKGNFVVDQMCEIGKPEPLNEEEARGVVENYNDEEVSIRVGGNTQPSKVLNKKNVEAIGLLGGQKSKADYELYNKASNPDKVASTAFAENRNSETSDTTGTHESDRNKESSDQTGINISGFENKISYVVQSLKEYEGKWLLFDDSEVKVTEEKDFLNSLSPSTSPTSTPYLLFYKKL
Summary of the method: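 USP1/UAF1 complex at 1 nM preincubated 15 min at room temperature with compound, then Ub-Rho substrate added at 150 nM final. Fluorescence (480/540 nm) read kinetically in 50 mM HEPES pH 7.8, 0.5 mM EDTA, 1 mM TCEP, 0.1 mg/ml BSA, 0.01% Tween-20.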
Potency is the fitted concentration of half-maximal effect; tags give direction and shape of the fitted curve.

Potency, active:
c1ncc(-c2ccoc2)c(NC2CC2)n1 28.2 µM

Potency, inactive:
COc1ccc(Oc2ncc3ncc(=O)n(C)c3n2)cc1, Cn1c(=O)c(-c2cccs2)nc2cncnc21, CC(=O)NCCNc1ccnc(-c2ccccc2C(F)(F)F)n1, O=c1cnc2cnc(N3CCOCC3)nc2n1C1CC1, COCCNc1cc(-c2c(C)noc2C)ncn1, Cc1noc(C)c1-c1ccc2ncnc(NC3CCNCC3)c2c1, CN(C)c1ncc2nc(-c3ccccc3)c(=O)n(C[C@H]3CCCO3)c2n1, CCNc1ncc2nc(C)c(=O)n(Cc3cccs3)c2n1, CN(C)C(=O)c1ccc(-c2cncnc2-n2ccnc2)cc1, COCCn1c(=O)c(-c2cccc(F)c2)nc2cncnc21

Potency, inconclusive:
c1ccc(Nc2ncncc2-c2ccoc2)cc1 31.6 µM [inhibitor, partial curve, poor fit], COc1ccc(CNc2ncncc2-c2ccc(N(C)C)cc2)c(OC)c1 39.8 µM [inhibitor, partial curve, poor fit], FC(F)(F)c1ccccc1-c1cc(NCc2ccccc2)ncn1 22.4 µM [inhibitor, partial curve, poor fit], COc1ccc(CNc2ccnc(-c3ccccc3Cl)n2)c(OC)c1 39.8 µM [inhibitor, single point], COc1ccc(CNc2cc(-c3ccccc3Cl)ncn2)c(OC)c1 31.6 µM [inhibitor, partial curve, poor fit], COc1ccccc1-c1nc(N(C)Cc2ccco2)c2ccccc2n1 35.5 µM [inhibitor, single point]
